Here are results for 55 compounds from ChEMBL document CHEMBL4888484, “Replenishing the malaria drug discovery pipeline: Screening and hit evaluation of the MMV Hit Generation Library 1 (HGL1) against asexual blood stage Plasmodium falciparum ,using a nano luciferase reporter read-out” (2022).

For orientation: % Inhibition means the drop in the measured response relative to a control, in per cent.

In all, about 150,000 compounds went through this assay and about 540 (0.36%) showed an effect of 50% or more. This is one part of the list.

This assay has as its system Plasmodium falciparum. The assay can be described thus: Primary screen in NF54 nanoGlo assay, in single point, at 2uM, 72h; a lower Z score goes with more inhibition. Format: functional, Erythrocyte. Conditions: timepoint 72 hour.
In the case of `CC(C)CN1CCC[C@H](CNC(=O)c2cnc(-c3ccncc3)s2)C1`, the “% Inhibition” value is -10% and the Z score was 1.99.

With `O=C(NCCn1ccnc1-c1ccc(CO)o1)c1cccnc1`, the “% Inhibition” value is on record as -13% and the Z score is reported as 1.42.

As to `O=C(N[C@@H]1CN(CC2CC2)C[C@H]1CO)c1ccccc1`, the “% Inhibition” value was -9% and the Z score is listed as 1.29.

On to `CCc1nnc(CNC(=O)[C@H]2CCOc3ccccc3C2)s1`, for which the “% Inhibition” value is recorded as 0% and the Z score is recorded as 0.03.

With `NS(=O)(=O)c1cccc(CCC(=O)N[C@]23CCC[C@H]2OCC3)c1`, the “% Inhibition” value is 4% and the Z score was -0.6.

On to `CC(C)(CNC(=O)N[C@H]1CCCNC1=O)c1ccccc1Br`, for which the “% Inhibition” value was -14% and the Z score was 1.77.

Turning to `Cc1noc(C)c1CN1C(=O)[C@@H]2CC[C@H]1CN(C(=O)c1ccncc1)C2`, the “% Inhibition” value is -10% and the Z score is on record as 1.38.

As to `COc1cc(OC)cc(OC[C@H]2CCCN2CC(F)F)c1`, the “% Inhibition” value is -14% and the Z score is recorded as 1.48.

As to `CCOC(=O)N1CCC(Nc2ccc3cn[nH]c3c2)CC1`, the “% Inhibition” value was found to be 3% and the Z score was -0.59.

`C=C(C)C1CCC(C)NC1c1ccccc1` (stereo not given): the “% Inhibition” value is -4% and the Z score is given as 0.46.

With `CC1CCN(S(=O)(=O)c2ccc(-c3nc4ccccc4s3)cc2)CC1`, the “% Inhibition” value was -3% and the Z score came to 0.43.

In the case of `O=C(C1CCCCCC1)N1CCn2c(nnc2C(F)(F)F)C1`, the “% Inhibition” value is reported as -3% and the Z score is on record as 0.5.

For `N#Cc1ccccc1/N=C1\CCCN1c1cccc(Cl)c1`, the “% Inhibition” value turned out to be 6% and the Z score is on record as -1.22.

For the compound `NC(=O)c1ccc(C(=O)N2CCCC[C@@]23CCOC3)s1`, the “% Inhibition” value was -6% and the Z score is listed as 1.09.

For the compound `CN(C[C@H]1CCCO1)C(=O)Cn1cncn1`, the “% Inhibition” value was -5% and the Z score came to 0.9.

As for `O=c1c2cccn2cnn1Cc1noc([C@@H]2CCCO2)n1`, the “% Inhibition” value was -4% and the Z score came out at 0.9.

For the compound `CCCN(CC(=O)N1CCc2sccc2[C@@H]1COc1ccc(C)cc1)C(=O)c1ccc2c(c1)OCO2`, the “% Inhibition” value turned out to be 2% and the Z score is -0.19.

As to `Cc1cccc(-c2nc3cc(C)ccc3cc2CN2CCN(CCCO)CC2)c1`, the “% Inhibition” value is on record as -1% and the Z score is recorded as 0.25.

As for `CN1CCC[C@H](CN(CCc2ccccc2)C(=O)CNC(=O)N(C)C)C1`, the “% Inhibition” value is -9% and the Z score turned out to be 1.61.

With `Cc1n[nH]c(C)c1Cc1n[nH]c(=O)n1[C@@H](C)C(=O)O`, the “% Inhibition” value amounted to 1% and the Z score is given as -0.23.

For the compound `Cc1ccc2c(c1)N(C(=O)[C@@H]1CCCCN1C(=O)c1cccnc1)CC2`, the “% Inhibition” value is listed as -7% and the Z score is on record as 0.99.

For `O=C(NC1(c2ncccn2)CCOCC1)[C@@H]1Cc2ccccc2O1`, the “% Inhibition” value is listed as -22% and the Z score amounted to 2.37.

With `O=C(NCc1ccc2c(c1)CCN2C(=O)c1ccccc1)c1cccc(F)c1`, the “% Inhibition” value was -17% and the Z score was 3.18.

For `CCCCC(=O)N1CCC(C(=O)N[C@@H]2CCCC[C@H]2NC(=O)c2ccccc2)CC1`, the “% Inhibition” value turned out to be 0% and the Z score was 0.04.

With `COC1CCCN(CC2(O)CCCN(C(=O)OC(C)(C)C)CC2)C1` (stereo not given), the “% Inhibition” value is 2% and the Z score is -0.26.

With `CCCc1ccc(OCCCC(=O)NC(C)(C)C)cc1`, the “% Inhibition” value is listed as -20% and the Z score came to 2.39.

Take `CC1CC(C)CN(C(=O)CCc2cccnc2)C1` (stereo not given): the “% Inhibition” value is -11% and the Z score is 1.17.

In the case of `CC(C)(CNC(=O)CC(C1CC1)C1CC1)C(N)=O`, the “% Inhibition” value is -3% and the Z score came to 0.55.

As to `CC1(C)CCN(CCNC(=O)[C@H]2CC[C@@H](C(=O)N3CCCC3)O2)C1`, the “% Inhibition” value was -9% and the Z score came to 1.46.

As for `COc1cc(C(=O)N2CCC[C@H](C(=O)O)[C@@H]2C)ccc1Cl`, the “% Inhibition” value was -17% and the Z score amounted to 1.97.

In the case of `Cc1n[nH]c(C2CN(CC(=O)N(C)C(C)c3cccs3)CCO2)n1` (stereo not given), the “% Inhibition” value was determined as 2% and the Z score was -0.4.

As to `CCn1cc(CN2CC[C@H](N(CCc3noc(C4CCC4)n3)C(C)=O)C2)cn1`, the “% Inhibition” value is -8% and the Z score is 1.3.

Consider `O[C@H]1CN(Cc2ccc3c(c2)OCO3)CCN(c2ccncc2)C1`, for which the “% Inhibition” value is -6% and the Z score turned out to be 0.71.

Take `Cc1cnc(N(C)CCCc2nccn2C)nc1N(C)C`: the “% Inhibition” value is given as 6% and the Z score was -1.18.

For `CN1CCN(Cc2noc(C[C@@H]3C[C@@H]4C=C[C@H]3C4)n2)CC1`, the “% Inhibition” value was -23% and the Z score is 2.15.

Regarding `CC(C)(CO)NC(=O)Nc1ccccc1`, the “% Inhibition” value is reported as -4% and the Z score is 0.73.

As for `CC(C)n1cc(S(=O)(=O)N(C)CCOc2cccc(F)c2)cn1`, the “% Inhibition” value is given as -17% and the Z score was 3.29.

For the compound `O=C(N[C@@H]1CN(Cc2cccnc2)C[C@H]1CO)c1cccnc1`, the “% Inhibition” value is recorded as -11% and the Z score is 1.92.

As to `CC(=O)N(C)CC(=O)N1C(C)CN(C(=O)OC(C)(C)C)C(C)C1C` (stereo not given), the “% Inhibition” value is reported as -5% and the Z score amounted to 0.92.

Consider `OC[C@@H](NCC1OCCO1)c1ccccc1`, for which the “% Inhibition” value is on record as -10% and the Z score stood at 1.33.

As for `O=C(N[C@H]1C[C@@H](C(=O)O)C1)c1cc(C2CC2)[nH]n1`, the “% Inhibition” value is -10% and the Z score worked out at 1.31.

Regarding `O=C(c1ccccn1)N1C[C@H]2CC[C@@H](C1)N(Cc1ccccn1)C2=O`, the “% Inhibition” value was -4% and the Z score is 0.71.

Take `COc1cc2c(cc1OC)CN(C(=O)C[C@@H]1NC(=O)NC1=O)CC2`: the “% Inhibition” value is listed as -5% and the Z score is 0.81.

On to `CN1C[C@@H](Nc2ncnc3ccccc23)CCC1=O`, for which the “% Inhibition” value is given as -5% and the Z score was 1.05.

As to `CC(C)(COC(=O)Nc1cccc(Cl)c1)NC(=O)COc1ccccc1`, the “% Inhibition” value is given as -1% and the Z score is on record as 0.08.

Turning to `CC(C)(C)n1nnc(CC(=O)Nc2ccc(-c3nc4ccccc4s3)cn2)n1`, the “% Inhibition” value is -5% and the Z score stood at 0.81.

As for `COc1ccc(CN2CCN3CCCC3C2C)cc1O` (stereo not given), the “% Inhibition” value is -2% and the Z score was 0.3.

As to `N#Cc1c(N)sc2c1CCN(c1ncccn1)C2`, the “% Inhibition” value is recorded as -15% and the Z score is on record as 1.27.

On to `Cn1nnc2c(S(=O)(=O)N[C@H]3CCOC[C@@H]3OCC3CCC3)cccc21`, for which the “% Inhibition” value is -8% and the Z score was 1.36.

Turning to `O=C1CNC(=O)[C@]12CCCc1ccccc12`, the “% Inhibition” value was 4% and the Z score is recorded as -0.66.

Turning to `O=C(NCCc1cscn1)Nc1ccn(-c2ccccc2)n1`, the “% Inhibition” value is reported as -11% and the Z score is 1.67.

`CCC1CCC(C)N1CC(=O)Nc1cc(-n2nnnc2C)ccc1F` (stereo not given): the “% Inhibition” value is listed as -9% and the Z score is 0.91.

Regarding `CCc1nc(CN2C(=O)COc3cc(S(=O)(=O)NC4CCCCC4)c(C)cc32)no1`, the “% Inhibition” value is recorded as 2% and the Z score is -0.26.

For the compound `O=S1(=O)CCN(C[C@H](O)c2ccc(C(F)(F)F)cc2)CC1`, the “% Inhibition” value was -6% and the Z score turned out to be 1.21.

Take `O=C(N[C@@H]1[C@@H]2CCO[C@@H]2[C@H]1N1CCCC1)c1ccn(C(F)F)n1`: the “% Inhibition” value is 4% and the Z score is listed as -0.78.
